Laboratory results as given in patent US20260258115A1.

Key:
[1] = molecular target: Respiratory Syncytial Virus fusion glycoprotein (RSV F) on RSV-A2 virus (Respiratory Syncytial Virus subtype A (RSV-A2)); test: cell-based or functional assay
[2] = molecular target: RSV prefusion F (preF), DS-Cav1 (Respiratory Syncytial Virus); test: BLI, IgG on anti-human IgG sensor, 100 nM antigen
[3] = molecular target: RSV postfusion F (postF), F deltaFP (Respiratory Syncytial Virus); test: BLI, IgG on anti-human IgG sensor, 100 nM antigen

B1: ADI-41192 (antibody, V domains shown)
VH: QVQLVQSGAEVKKPGASVKVSCRTSGYTFTDYEINWVRQAPGQGLEWMGGISAYNGKTDYAQNLQDRVTMTTDTSTSTAYMELRSLRSDDTAVYYCARIFYYDRSGYYLALFDSWGHGTLVTVSS
VL: [about 100 residues not written out]TLTFGGGTKMDIK
[1]
  Neutralization IC50 (RSV subtype A): > 25 µg/mL
[2]
  Kd: 3.39 nM
[3]
  Kd: 0.589 nM
